Variants at the floor of the assay are shown more often than the library holds them.
B1: TPR 5TU (parent)
chain: GGAUCUUCUCGAUCUAACAAAAAAGACAAAUCUGCCACAAAGCUUGAGAGCAUCUUCGGAUGCAGAGGCGGCAGCCUUCGGUGGCGCGAUAGCGCCAACGUUCUCAACUAUGACACGCAAAACGCGUGCUCCGUUGAAUGGAGUUUAUCAUG

Variants of: B1
Experiment: polymerase ribozyme fitness, log enrichment relative to wild type (log ratio); higher = more active; in vitro selection for triplet polymerase activity
Outline: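 Genotype fitness is the logarithm of its enrichment divided by wild-type enrichment, using inverse-variance-weighted averages of replicates. That logarithm is base 2. Enrichment was measured by Illumina sequencing of input and output libraries from one triplicate in vitro selection round, with frozen incubation at −7 °C, on PCR-built, transcribed mutant libraries of each subunit of a heterodimeric triplet polymerase ribozyme, retaining genotypes with ≥10 input reads and ≥1 read per output.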

A3G A26U C72U and A3U C8U C27A A28C C51A A52C C54A C93U C103G C108G A115C C118A U135A A142U cannot be ordered by “polymerase ribozyme fitness (log ratio)” value: ≤ -4.2 for the first, ≤ -4.2 for the second.

U4G A17U C51U A52U C57A C75G G83U G117U G136U and A3G A37G U53G C57U A73G C95G A138G cannot be ordered by “polymerase ribozyme fitness (log ratio)” value: ≤ -4.2 for the first, ≤ -4.2 for the second.

First: A3U A29C G42C U53G U101G A119U
Second: C5A G48C
The “polymerase ribozyme fitness (log ratio)” value of the first is lower: ≤ -4.2 for the first, -0.334 for the second.

First: C5A A110C
Second: C5G A21G U55A C57U A147C
The “polymerase ribozyme fitness (log ratio)” value of the first is lower: ≤ -4.2 for the first, -0.914 for the second.

C5A U7C C32A C35U U56A C96A A121G and A3U G50A A66G U77A C96G U134G A137C cannot be ordered by “polymerase ribozyme fitness (log ratio)” value: ≤ -4.2 for the first, ≤ -4.2 for the second.

First: A3G U6G A37C A47C G71A C95U C105A U135A G140U
Second: A3G A73U A121U
The “polymerase ribozyme fitness (log ratio)” value of the first is lower: ≤ -4.2 for the first, -0.51 for the second.

A3G G34A G86C C87U C125A and A3U U4A A16U U31A C85U G88A C125U U146G cannot be ordered by “polymerase ribozyme fitness (log ratio)” value: ≤ -4.2 for the first, ≤ -4.2 for the second.

U4C A24U C32G A37G C57G G84A U90C A98G and C5A A30U A52U C76A C95U A119C G136A U148G cannot be ordered by “polymerase ribozyme fitness (log ratio)” value: ≤ -4.2 for the first, ≤ -4.2 for the second.

A3U A26U U82G G92A G126A C132G and U4C C18G A52G C54U G70A A91C C93A G128U G133C U151C cannot be ordered by “polymerase ribozyme fitness (log ratio)” value: ≤ -4.2 for the first, ≤ -4.2 for the second.

U4C C27G A60U A119U U134C and U4A A28U C93U A97U C105G G126A G136U cannot be ordered by “polymerase ribozyme fitness (log ratio)” value: ≤ -4.2 for the first, ≤ -4.2 for the second.

U4G A20U U31G G34A C75G G84A A91G and U4G A19U C43U C87U A98G cannot be ordered by “polymerase ribozyme fitness (log ratio)” value: ≤ -4.2 for the first, ≤ -4.2 for the second.

A3G G11U A52G G84U A110G and U4A G42C U45A G84A C108U cannot be ordered by “polymerase ribozyme fitness (log ratio)” value: ≤ -4.2 for the first, ≤ -4.2 for the second.

C5A G68U G80A C87G C93G and U4G A91U cannot be ordered by “polymerase ribozyme fitness (log ratio)” value: ≤ -4.2 for the first, ≤ -4.2 for the second.

A3U C35U C54A C85G and A3U G11A A21G G84U C131A U134C cannot be ordered by “polymerase ribozyme fitness (log ratio)” value: ≤ -4.2 for the first, ≤ -4.2 for the second.

A3U A40G A60C U61A G81C U90G G94A C123A U139A and U4G A12C A23U G48U U56G U61A G80C C99U G124A U130G A137G U146C cannot be ordered by “polymerase ribozyme fitness (log ratio)” value: ≤ -4.2 for the first, ≤ -4.2 for the second.

U4A A23G A24U A26U U31C C75A U77G C129U and A3U A28C cannot be ordered by “polymerase ribozyme fitness (log ratio)” value: ≤ -4.2 for the first, ≤ -4.2 for the second.

Compared with A3U A16U A49U C103A C114A U146A, A3U G83A C118G A142C is higher in “polymerase ribozyme fitness (log ratio)” value: ≤ -4.2 for the first, -3.66 for the second.

Going from C5G A12U G68C G88U to A3U C54U, the “polymerase ribozyme fitness (log ratio)” value rises from ≤ -4.2 to -1.57.

C5A C10G C14G G48A C54U G58A C87U A91U C123A and A3U A22C U44G U45G C96U C114G G133A U134A cannot be ordered by “polymerase ribozyme fitness (log ratio)” value: ≤ -4.2 for the first, ≤ -4.2 for the second.

A3U G71A C93G and A3G A29G U82A cannot be ordered by “polymerase ribozyme fitness (log ratio)” value: ≤ -4.2 for the first, ≤ -4.2 for the second.

A3U C18U A49C A52C U53A C54G G58C C85U C99G U104C A138U and C5A U9C A30C G46A A49C C93U C129G U139A cannot be ordered by “polymerase ribozyme fitness (log ratio)” value: ≤ -4.2 for the first, ≤ -4.2 for the second.
